Common to all, as to experiment: enrichment score (SH2-bound / input frequency) (ratio); bacterial display of known human phosphotyrosine sites (pTyr-Var adds point mutants) read by sequencing; higher = stronger binding; tyrosines were phosphorylated by kinases first
Details in all cases: peptide library: pTyr-Var

In test [1] the target is SHP2 C-SH2 domain E139D.
In test [2] the target is SHP2 C-SH2 domain wild-type.
The target in test [3] is SHP2 N-SH2 domain L43F.
In test [4] the target is SHP2 N-SH2 domain T42A.
The target in test [5] is SHP2 N-SH2 domain T52S.
The target in test [6] is SHP2 N-SH2 domain wild-type.

This is one part of the list. Cut-off read from the data, not from the text of the source: active = 3.2 or more and inactive = the rest. The signal is at background level for most entries.
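Note: displayed peptides selected on beads carrying the immobilized SH2 domain, with library peptides lacking any tyrosine serving as negative controls.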

Consider CLLHCYFSQIH [MCM3AP_Y873_R878H], for which the enrichment score in test [1] was active: 3.76; in test [2], active: 3.5; in test [3] it was inactive: 2.61; in test [4], inactive: 2.29; in test [5] it was inactive: 2.63; in test [6], inactive: 3.09.
Regarding EEGNPSFSSAR [MCCC2_Y520_Y520S_YF], the enrichment score is inactive: 0.592 in test [1]; inactive: 0.656 in test [2]; inactive: 0.431 in test [3]; inactive: 0.58 in test [4]; inactive: 0.445 in test [5]; inactive: 0.612 in test [6].
RRGFLYDSDEE [MCM2_Y137_L135F]: the enrichment score in test [1] was inactive: 0.414; in test [2] it was inactive: 0.302; in test [3], inactive: 0.515; in test [4] it was inactive: 0.343; in test [5], inactive: 0.379; in test [6], inactive: 0.207.
Take EEGNPYFSSAR [MCCC2_Y520_YF]: the enrichment score in test [1] is inactive: 0.639; in test [2], inactive: 0.608; in test [3], inactive: 0.498; in test [4] it was inactive: 0.456; in test [5] it was inactive: 0.648; in test [6] it was inactive: 0.578.
Consider RKPDIYERLAS [MCM4_Y459], for which the enrichment score in test [1] is inactive: 1.01; in test [2] it was inactive: 0.894; in test [3] it was inactive: 0.846; in test [4], inactive: 0.772; in test [5], inactive: 0.709; in test [6], inactive: 1.13.
With VQSASYLNACL [MCM3AP_Y864], the enrichment score in test [1] was inactive: 0.871; in test [2], inactive: 1.06; in test [3], inactive: 0.892; in test [4], inactive: 0.786; in test [5] it was inactive: 0.842; in test [6], inactive: 1.07.
Turning to RSAGKDDVYLI [MECP2_Y120_Y120D], the enrichment score in test [1] was inactive: 0.463; in test [2], inactive: 0.408; in test [3], inactive: 0.428; in test [4] it was inactive: 0.516; in test [5], inactive: 0.49; in test [6] it was inactive: 0.536.
Consider ANKNVYEVEPT [MEGF10_Y1075_R1072K], for which the enrichment score was inactive: 0.879 in test [1]; inactive: 0.889 in test [2]; inactive: 0.62 in test [3]; inactive: 0.676 in test [4]; inactive: 0.696 in test [5]; inactive: 0.812 in test [6].
As for VQSASYLNDCL [MCM3AP_Y864_A867D], the enrichment score in test [1] is inactive: 1.05; in test [2], inactive: 0.819; in test [3] it was inactive: 0.752; in test [4] it was inactive: 0.713; in test [5], inactive: 0.784; in test [6], inactive: 1.04.
Take YKEDPYLVVNP [MCM6_Y810_E806K]: the enrichment score is inactive: 0.906 in test [1]; inactive: 0.94 in test [2]; inactive: 0.95 in test [3]; inactive: 0.824 in test [4]; inactive: 0.941 in test [5]; inactive: 1.13 in test [6].
RRGLLYDSDEE [MCM2_Y137]: the enrichment score is inactive: 0.168 in test [1]; inactive: 0.28 in test [2]; inactive: 0.413 in test [3]; inactive: 0.265 in test [4]; inactive: 0.301 in test [5]; inactive: 0.242 in test [6].
Take ARSHIYTLASC [MEFV_Y741_F743L]: the enrichment score is inactive: 0.75 in test [1]; inactive: 0.972 in test [2]; inactive: 0.87 in test [3]; inactive: 0.883 in test [4]; inactive: 0.747 in test [5]; inactive: 0.872 in test [6].
With FEEDPYLVVNP [MCM6_Y810_YF], the enrichment score is inactive: 0.729 in test [1]; inactive: 0.764 in test [2]; inactive: 0.749 in test [3]; inactive: 0.834 in test [4]; inactive: 0.815 in test [5]; inactive: 1.01 in test [6].
On to ARSHIYTFASC [MEFV_Y741], for which the enrichment score was inactive: 0.786 in test [1]; inactive: 0.728 in test [2]; inactive: 0.744 in test [3]; inactive: 0.664 in test [4]; inactive: 0.669 in test [5]; inactive: 0.718 in test [6].
Regarding RSAGKYDVFFI [MECP2_Y120_L124F_YF], the enrichment score was inactive: 0.734 in test [1]; inactive: 0.635 in test [2]; inactive: 0.86 in test [3]; inactive: 0.793 in test [4]; inactive: 0.768 in test [5]; inactive: 0.621 in test [6].
With KNNDGYIDFAE [MCFD2_Y135_YF], the enrichment score in test [1] is inactive: 0.441; in test [2], inactive: 0.552; in test [3], inactive: 0.596; in test [4], inactive: 0.765; in test [5] it was inactive: 0.567; in test [6], inactive: 0.668.
For the molecule CLSHCYFSQIR [MCM3AP_Y873_L870S], the enrichment score in test [1] is active: 4.25; in test [2] it was active: 3.71; in test [3] it was active: 3.44; in test [4] it was inactive: 3.15; in test [5] it was active: 3.74; in test [6], active: 3.32.
In the case of DGYTDYAEFAK [MCFD2_Y138_I136T], the enrichment score in test [1] is inactive: 0.511; in test [2] it was inactive: 0.459; in test [3], inactive: 0.678; in test [4], inactive: 0.347; in test [5], inactive: 0.508; in test [6] it was inactive: 0.48.
RSAGKYDVYFI [MECP2_Y120_L124F]: the enrichment score in test [1] is inactive: 0.553; in test [2], inactive: 0.834; in test [3], inactive: 0.981; in test [4] it was inactive: 0.471; in test [5], inactive: 0.909; in test [6], inactive: 0.796.

Source of the values: the supplement of paper PMC10369915.
